Results reported in paper PMC5323128 (2016).

Experiments:
[1] = biological target: Tetravalent TRAIL^mim/DR5 peptide 2ta; experiment: SPR; apparent koff
[2] = biological target: Divalent TRAIL^mim/DR5 peptide 2d; experiment: SPR; apparent koff

B1: Recombinant human DR5 (Death Receptor 5) (receptor)
chain: not shown
B1 gave a koff [1] of 0.0001 s⁻¹ and a koff [2] of 0.002 s⁻¹.
